From the BET-seq Pho4 binding data (Le et al. 2018)
This is one part of the list. Values were computed here from the reads of four pooled replicates and scatter widely.

Target: T1, Pho4 (S. cerevisiae) (UniProt P07270)
T1 sequence: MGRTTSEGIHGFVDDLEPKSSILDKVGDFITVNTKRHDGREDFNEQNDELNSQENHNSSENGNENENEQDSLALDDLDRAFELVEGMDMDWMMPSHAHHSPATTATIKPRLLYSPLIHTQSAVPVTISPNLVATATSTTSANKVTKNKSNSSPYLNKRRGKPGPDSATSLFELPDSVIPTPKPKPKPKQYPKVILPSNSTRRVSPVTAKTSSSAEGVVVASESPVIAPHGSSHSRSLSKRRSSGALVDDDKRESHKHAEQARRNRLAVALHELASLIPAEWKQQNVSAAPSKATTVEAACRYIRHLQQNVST
Assay: relative binding free energy (BET-seq); higher = weaker binding
Details: reference: library average

| Sequence | relative binding free energy [kcal/mol] |
| --- | --- |
| ATAGGCACGTGCGGGG | -0.19 |
| GTTAACACGTGGGTGT | -0.08 |
| CTGTTCACGTGTTCTG | 0.28 |
| TGGGTCACGTGTGCGA | 0.05 |
| GCTGGCACGTGGAGGT | 0.06 |
| GAGTCCACGTGTGTTT | 0.13 |
| ACAGGCACGTGGGGTC | -0.23 |
| ACTGTCACGTGTGTGC | 0.13 |
| TGAACCACGTGGTAGT | 0.01 |
| TTTTACACGTGAAAAT | 0.44 |
| TGGAGCACGTGGCGTT | -0.23 |
| TTAAACACGTGTGGGC | 0.01 |
| GTTTTCACGTGTGCGA | 0.38 |
| TTAATCACGTGGTACA | 0.12 |
| CATGTCACGTGAGGCG | 0.35 |
| CTAGGCACGTGTGTGA | -0.03 |
| TAAGGCACGTGTCATT | -0.17 |
| AATGGCACGTGTGGCT | -0.22 |
| CTATTCACGTGGGAGG | 0.15 |
| ATAGGCACGTGTGGCG | -0.05 |
| TGAGGCACGTGTGCAT | -0.13 |
| TGAATCACGTGTATAT | 0.03 |
| TTGAACACGTGAGTAT | 0.16 |

| Sequence | relative binding free energy [kcal/mol] |
| --- | --- |
| GTTAGCACGTGTACAG | 0.11 |
| TGTGCCACGTGGCGTT | -0.22 |
| AATTGCACGTGAGTTC | 0.3 |
| AAATACACGTGTGGGA | 0.06 |
| ATAGTCACGTGTGTGT | 0.14 |
| GGTGGCACGTGCTGAG | -0.18 |
| TATTTCACGTGCTATG | 0.14 |
| GGTGCCACGTGGTGTG | -0.21 |
| ATCTGCACGTGAGGGT | 0.28 |
| TGGTACACGTGGTCGC | 0.03 |
| CAATTCACGTGGGAGT | 0.13 |
| TTTATCACGTGTATTT | 0.18 |
| GGTAGCACGTGTGTTA | 0.01 |
| AGATTCACGTGAGGCG | 0.27 |
| TGGTGCACGTGGAAAG | 0.01 |
| TGAACCACGTGTTGTG | -0.17 |
| GGAAACACGTGGGTTA | 0.02 |
| TATTTCACGTGTTGCT | 0.18 |
| ACTGGCACGTGGGTTT | -0.12 |
| CGTGACACGTGTTTGT | 0 |
| CTCGGCACGTGGGTTA | -0.17 |
| CGGTGCACGTGAAGTT | 0.26 |
| GTAGGCACGTGGTCGG | -0.15 |

| Sequence | relative binding free energy [kcal/mol] |
| --- | --- |
| CTGAGCACGTGGGGTT | -0.29 |
| GTTTGCACGTGTGTAT | 0.16 |
| CGGGGCACGTGTTAGA | -0.13 |
| TGTTGCACGTGCTGCG | -0.06 |
| AGTACCACGTGAGTGT | 0.12 |
| TCATTCACGTGTGTGT | 0.17 |
| TGCACCACGTGGTGTG | -0.23 |
| GGTGACACGTGAGGAA | 0.25 |
| TGTGTCACGTGGACGC | -0.03 |
| AGGAACACGTGTAGTG | 0.07 |
| GAAGTCACGTGTGTTC | 0.15 |
| TAGTGCACGTGGATGT | 0.04 |
| TTTAACACGTGATTGC | 0.17 |
| GACGTCACGTGGATGT | 0.06 |
| GGGCCCACGTGGGAGT | -0.12 |
| CATGGCACGTGTGGAG | -0.07 |
| CGGGGCACGTGCGGTA | -0.06 |
| GGTATCACGTGGGCTA | -0.06 |
| AGGTACACGTGGGTTT | -0.05 |
| ATTTACACGTGTATTT | 0.15 |
| AGTCTCACGTGGTAAG | 0.16 |
| AGGATCACGTGGACGG | 0.15 |
| AGTCACACGTGGAAGT | 0.32 |

| Sequence | relative binding free energy [kcal/mol] |
| --- | --- |
| TTTCGCACGTGTAGCT | -0.01 |
| GTGAACACGTGTAGTA | 0.01 |
| GAGTTCACGTGTTCAG | 0.24 |
| ATTTTCACGTGTATAA | 0.12 |
| CGCGTCACGTGTGTTT | 0.1 |
| GTGGGCACGTGAAGAA | 0.03 |
| AAGTGCACGTGTACGG | -0.14 |
| AGCGACACGTGAGGGG | 0.18 |
| TTTAACACGTGTTTGG | 0 |
| AGGGGCACGTGAGTGG | 0.15 |
| TATGCCACGTGTGTTA | -0.06 |
| CCTTTCACGTGGGTGG | 0.16 |
| AGTAGCACGTGCAGGA | -0.03 |
| TTTTACACGTGTATCA | 0.15 |
| AGATTCACGTGGAGGC | 0.31 |
| AGGGGCACGTGCGATC | -0.08 |
| CATTGCACGTGGAGTG | -0.02 |
| AGTCACACGTGCGGGG | -0.07 |
| TAGGGCACGTGTTCGG | -0.07 |
| TAGTGCACGTGCATTA | -0.05 |
| AGGATCACGTGGGAGC | -0.01 |
| CAAGGCACGTGTGTCG | 0.05 |
| AGGGGCACGTGTTTCA | -0.15 |

| Sequence | relative binding free energy [kcal/mol] |
| --- | --- |
| GGTTGCACGTGGAACT | 0.08 |
| TTGGTCACGTGTTACC | 0.13 |
| ATCGGCACGTGATTGG | 0.02 |
| AGAGCCACGTGTAGGT | -0.09 |
| GGTTTCACGTGCTGCT | 0.29 |
| GTAGACACGTGTGTTA | 0.01 |
| GTAATCACGTGGGGTT | 0.07 |
| TTTGGCACGTGTTTGG | -0.04 |
| TAATTCACGTGGGGAT | 0.27 |
| AGGCGCACGTGTATTG | -0.17 |
| ACTGTCACGTGTAATT | 0.13 |
| TTAGTCACGTGGAAAA | 0.21 |
| CACGGCACGTGTGGGA | -0.01 |
| CGCGGCACGTGTCAGG | 0.02 |
| TGGTACACGTGAAGTA | 0.29 |
| TATATCACGTGTGGTC | 0.09 |
| ATATTCACGTGATGAG | 0.23 |
| TATGGCACGTGGATGC | -0.03 |
| ATGCGCACGTGAGAGT | 0.12 |
| AAATGCACGTGTTTTA | -0.07 |
| AGTTTCACGTGATAGC | 0.52 |
| GATAGCACGTGATGGG | 0.14 |
| TTTTTCACGTGGTATC | 0.24 |
